Tested on: mouse middle cerebral artery occlusion (MCAO) model
Assay: Brain injury in cerebral ischemic stroke, TTC staining, cerebral injury volume
Type: in vivo, mice

Question: Cc1ccnc(N)c1 [2-amino-4-methylpyridine (AMP), 2-amino-4-methylpyridine] was tested. Which “degree of injury in the cerebral ischemic stroke” value (MCAO mice, 0.01-1000 mg/kg gavage once 1 hour after stroke, compared to MCAO group without intervention) did it give?
Answer: alleviates

Question: With [H]/N=C(\C)NCc1cccc(CN)c1 [1400W] as the compound, how does the “degree of injury in the cerebral ischemic stroke” value (mouse, in vivo) read?
Answer: alleviates

Question: For [H]/N=C(/C)NCCCC[C@H](N)C(=O)O [L-NIL], which “degree of injury in the cerebral ischemic stroke” value (mouse, in vivo) is on record?
Answer: alleviates

Question: How did the “degree of cerebral injury, time effect” value (25 mg/kg gavage once at 1-12 h after stroke, detected 24 hours after stroke, FIGS. 12A-12B) turn out when N=C(N)NN [aminoguanidine (AG), aminoguanidine] was run?
Answer: significantly reduce

Question: And the “degree of injury of cerebral ischemic stroke” value (AG before modeling (1 mg/ml drinking water, 5 days) or after modeling (100 mg/kg gavage once, 1 hour after stroke), vs MCAO group without intervention, FIG. 8)?
Answer: significantly alleviated

Question: What about the “cerebral injury, dose effect” value (different doses 25-200 mg/kg, gavage once at first hour after stroke, detected 24 hours after stroke, FIGS. 12A-12B) of the same compound?
Answer: significantly reduce
